In PubChem BioAssay AID894 (National Center for Advancing Translational Sciences (NCATS), 2007):
Among all 150,000 compounds or so, about 6,500 (4.3%) were called active. The shares of active, inactive and inconclusive entries below differ from those in the screen. Calls follow the shape of the dose curve; as a rule, active = well fitted inhibition curve with a large enough effect (not every such curve was filed as active); inconclusive = small, poorly fitted or top-dose-only effect, or another doubt; inactive = no such curve, though single readings can be large or run the other way. No potency is given beside an inconclusive call; the fits are too rough.
% is scaled to controls: 0 for no effect and ±100 for the full control effect; potency is read from the fitted curve at half-maximal effect; tags tell the direction and shape of the fitted curve.

These molecules were tested against 15-hydroxyprostaglandin dehydrogenase [NAD(+)] (Homo sapiens) (UniProt P15428) (assay: qHTS Assay for Inhibitors of HPGD (15-Hydroxyprostaglandin Dehydrogenase)). Settings: purified HPGD, NADH fluorescence kinetic, PGE2 substrate; activity change, negative = inhibition: active compounds read low.
UniProt P15428, sequence (P15428 whole entry, looked up): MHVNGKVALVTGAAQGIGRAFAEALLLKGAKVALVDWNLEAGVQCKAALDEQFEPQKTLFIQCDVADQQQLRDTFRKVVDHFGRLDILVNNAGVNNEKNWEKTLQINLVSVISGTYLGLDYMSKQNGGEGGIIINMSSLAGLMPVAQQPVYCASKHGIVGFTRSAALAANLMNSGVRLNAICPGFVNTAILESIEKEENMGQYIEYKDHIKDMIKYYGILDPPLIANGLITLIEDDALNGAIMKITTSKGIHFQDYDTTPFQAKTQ
How it was run: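 NADH formation kinetics: reaction with 30 uM PGE2 and 1 mM NAD+ (final), 20 nM enzyme, Tris-HCl pH 8 with Tween 20, after 15 min compound preincubation at room temperature. Fluorescence change, last versus first of five reads.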
In the case of `COc1ccc(-c2nc3c(c(=O)[nH]c(=O)n3Cc3ccccc3)n2Cc2ccccc2)cc1`, the Potency is reported as inconclusive [inhibitor, partial curve]. For `COc1cccc(/C=N/NC(=O)c2ccc(=O)n(C)c2)c1OC`, the Potency was inconclusive [inhibitor, partial curve]. In the case of `COCC(C)NC(=O)COc1ccc(Cl)cc1Cl` (stereo unspecified), the activity change, negative = inhibition is reported as inactive: -26.8%. For `COC(=O)[C@@]1(Cc2ccc(OC)cc2)[C@H]2c3cc(C(=O)N4CCCC4)n(CCc4ccc(OC)c(Br)c4)c3C[C@H]2CN1C(=O)c1ccccc1`, the activity change, negative = inhibition was inactive: -8.34%. In the case of `CCC(C)n1c(SCC(=O)Nc2cc(C(C)(C)C)nn2-c2ccccc2)nc2ccccc2c1=O` (stereo unspecified), the Potency is reported as inconclusive [inhibitor, partial curve]. For `N#Cc1c(Nc2ccccc2)sc(C(=O)c2ccccc2)c1N`, the activity change, negative = inhibition was inactive: -29.2%. For `O=C(COC(=O)C1CC1)NCc1ccccc1Cl`, the Potency was inconclusive [inhibitor, single point]. For `COC(CNC(=O)c1ccc(N2CCCC2=O)cc1)OC`, the Potency was inconclusive [inhibitor, partial curve, poor fit]. In the case of `Cc1ccc(S(=O)(=O)N2CCC(CN3C(=O)c4cccc5cccc(c45)C3=O)CC2)cc1`, the Potency is reported as inconclusive [inhibitor, partial curve]. In the case of `CCN1C(=O)/C(=C\N(C(C)=O)c2ccccc2)OC1=S`, the Potency is reported as inconclusive [inhibitor, single point]. With `Clc1ccc(CN=C2Nc3ccccc3CS2)cc1` the Potency was inconclusive [inhibitor, partial curve]. With `CCOC(=O)c1sc2nc(CC(=O)OC)nc(NCc3ccc(Cl)cc3)c2c1C` the Potency was inconclusive [inhibitor, partial curve]. `N#CC(=C1CCCC1)c1nc(-c2cc3ccccc3oc2=O)cs1` was tested, and the Potency was inconclusive [inhibitor, partial curve]. With `Cc1occc1C(=O)Nc1nnc(-c2ccncc2)s1` the Potency was inconclusive [inhibitor, partial curve]. In the case of `S=C(NCc1ccccc1)NCc1ccccc1`, the Potency is reported as active: 14.1 µM. With `CC(C)NC(=O)N1CCCC2(CCN(C(=O)c3cc(C(F)(F)F)cc(C(F)(F)F)c3)CC2)C1` the activity change, negative = inhibition was inactive: -22.1%. In the case of `O=C(O)C1OC(Oc2cc3oc(-c4ccccc4)cc(=O)c3c(O)c2O)C(O)C(O)C1O` (stereo unspecified), the Potency is reported as active: 4.47 µM. `CC(=O)Nc1ccc(C(=O)N/N=C(\C)CC(=O)Nc2ccc(OCc3ccccc3)cc2)cc1` was tested, and the activity change, negative = inhibition was inactive: -12.2%. In the case of `Cc1ccccc1-n1c(-c2csc3ccccc23)n[nH]c1=S`, the Potency is reported as active: 15.8 µM. In the case of `CC1=C2[C@@H](O)[C@H]([C@@H](C)C(=O)NCCC(C)C)CC[C@@]2(C)C=CC1=O`, the activity change, negative = inhibition is reported as inactive: -7.81%. For `Cc1ccc2cc(CCNC(=O)c3ccco3)c(=O)[nH]c2c1C`, the Potency was inconclusive [inhibitor, partial curve]. In the case of `CC(C)CNC(=O)c1c(N)n(/N=C/c2ccccn2)c2nc3ccccc3nc12`, the activity change, negative = inhibition is reported as inactive: -12.9%. In the case of `CC(C)(C)c1csc(NC(=O)c2ccc3nccnc3c2)n1`, the Potency is reported as active: 10 µM. For `Cc1ccc(CSc2ncn(-c3ccccc3)n2)cc1`, the Potency was active: 20 µM. For `CCn1cc(C(=O)OCC(=O)c2cc(C)n(-c3ccccc3)c2C)c(=O)c2ccc(C)nc21`, the activity change, negative = inhibition was inactive: -12.2%. `Cc1nn(Cc2ccc(Cl)cc2)c(C)c1NC(=O)C1CC=CCC1C(=O)O` (stereo unspecified) was tested, and the activity change, negative = inhibition was inactive: -8.4%. In the case of `Cc1cc(C)cc(OC(=O)CCN2C(=O)c3ccccc3C2=O)c1`, the Potency is reported as inconclusive [inhibitor, partial curve]. In the case of `Cc1c(-c2ccccc2)nc(N)c(C#N)c1-c1ccco1`, the Potency is reported as inconclusive [inhibitor, partial curve]. For `N=C1C(c2nc3ccccc3c(=O)[nH]2)=C(O)CN1CCO`, the Potency was inconclusive [inhibitor, partial curve]. For `O=C(CCN1CCOCC1)Nc1ccc2c(c1)CCC2`, the Potency was inconclusive [inhibitor, partial curve]. In the case of `CC(=O)C1=C(C)NC(SCC(N)=O)=C(C#N)C1c1sccc1C` (stereo unspecified), the Potency is reported as inconclusive [inhibitor, partial curve]. For `CCOC(=O)C(NC(=O)CC)(Nc1ccccc1)C(F)(F)F` (stereo unspecified), the activity change, negative = inhibition was inactive: -1.68%. In the case of `Cc1cc2ccccc2n1CCNC(=O)Cc1ccccc1`, the activity change, negative = inhibition is reported as inactive: -6.72%. With `COC(=O)C1CC(=O)N(CCc2c[nH]c3ccccc23)C1` (stereo unspecified) the Potency was inconclusive [inhibitor, partial curve]. With `CCOC(=O)c1c(-c2ccc(C)o2)csc1NC(=O)CN(C)CC(=O)Nc1ccc(C)cc1` the Potency was inconclusive [inhibitor, partial curve]. With `CCC(CC)NC(=O)CO/N=C/c1ccccc1OC(F)F` the Potency was active: 20 µM. `COc1cc2c(cc1OC)C(c1cc3cc4c(cc3[nH]c1=O)OCO4)N(C(=O)C(C)C)CC2` (stereo unspecified) was tested, and the Potency was inconclusive [inhibitor, partial curve]. With `CC(C)NC(=O)c1cc(C(=O)c2cc(Cl)ccc2O)coc1=N` the Potency was inconclusive [inhibitor, partial curve]. `Cn1c(N2CCOCC2)nc(-c2ccccc2)c1-c1ccccc1` was tested, and the Potency was inconclusive [inhibitor, partial curve]. In the case of `Cc1ccc(-n2c(N)c(C(=O)N3CCOCC3)sc2=S)cc1`, the Potency is reported as active: 10 µM. In the case of `CCOC(=O)C1=C(Cc2ccc(C)cc2)C(=O)c2ccccc2C1=O`, the Potency is reported as active: 12.6 µM. With `CC1CCCN(C(=O)c2ccc(CNc3c(N4CCCCC4)c(=O)c3=O)cc2)C1` (stereo unspecified) the Potency was active: 0.282 µM. With `S=c1[nH]nc(-c2ccc3ccccc3n2)n1-c1cc(Cl)cc(Cl)c1` the Potency was inconclusive [inhibitor, full curve]. `COc1ccc2nc(NC(=O)Cc3cccs3)sc2c1` was tested, and the activity change, negative = inhibition was inactive: -7.96%. `COc1ccc(Cn2cccc(NC(=O)Nc3cccc(C#N)c3)c2=O)cc1` was tested, and the Potency was inconclusive [inhibitor, partial curve]. With `Cc1nn(C(=O)c2ccco2)c(C)c1Sc1ccc(Cl)cc1` the activity change, negative = inhibition was inactive: -11.3%. For `N#Cc1nc(-c2ccco2)oc1NCc1ccc(F)cc1`, the Potency was inconclusive [inhibitor, partial curve]. With `Cc1ccc(-c2cc(C(=O)Nc3sc4c(c3C(=O)NCc3ccco3)CCC4)[nH]n2)c(O)c1` the Potency was inconclusive [inhibitor, partial curve]. With `CS(=O)(=O)N(CC(=O)NCc1ccccn1)Cc1ccc(Cl)cc1` the activity change, negative = inhibition was inactive: -0.52%. With `Cc1ccc(-c2nc3ccccc3o2)cc1NC(=O)c1ccc2c(c1)OCO2` the Potency was inconclusive [inhibitor, partial curve]. In the case of `NC(=O)CSCc1nc2ccccc2s1`, the Potency is reported as inconclusive [inhibitor, partial curve]. In the case of `O=C(CSc1nnc2ccc3ccccc3n12)N1CCOCC1`, the Potency is reported as inconclusive [inhibitor, full curve, poor fit]. With `O=[N+]([O-])/C(=C\Nc1ccccc1)S(=O)(=O)c1ccccc1` the activity change, negative = inhibition was inactive: -8.2%. In the case of `O=C(NCC1COc2ccccc2O1)c1ccccc1` (stereo unspecified), the Potency is reported as inconclusive [inhibitor, partial curve]. In the case of `Cc1ccc(Cn2ncc3c(N4CCN(c5ccccc5C)CC4)ncnc32)cc1`, the Potency is reported as inconclusive [inhibitor, single point]. For `COc1ccc2nc(NCCCNC(=O)c3cc(OC)c(OC)c(OC)c3)c(C#N)cc2c1`, the Potency was inconclusive [inhibitor, partial curve]. For `Clc1ccccc1/C=N/NC1=Nc2cccc3cccc1c23`, the activity change, negative = inhibition was inactive: -5.17%. With `Cc1cc(C)c(NC(=O)/C=C\C(=O)O)c([N+](=O)[O-])c1` the Potency was active: 22.4 µM. With `CCOC(=O)c1sc(NC(=O)c2cc(-c3ccc(C)cc3)nc3ccccc23)c(C#N)c1C` the Potency was active: 22.4 µM. With `COC(=O)/C(=C\c1ccc2c(c1)c1ccccc1n2C)NC(=O)c1ccccc1` the Potency was inconclusive [inhibitor, partial curve]. For `COc1cc(OC)cc(-c2nnc(SCC(=O)N3CCCCC3)o2)c1`, the Potency was active: 25.1 µM. For `CCS(=O)(=O)NCCc1cc2cc(C)c(C)cc2[nH]c1=O`, the Potency was inconclusive [inhibitor, partial curve]. With `O=[N+]([O-])c1ccc(N/N=C2/CCCCC2c2ccccn2)c([N+](=O)[O-])c1` (stereo unspecified) the activity change, negative = inhibition was inactive: -4.22%. In the case of `COc1ccc(CN(CCC(c2ccccc2)c2ccco2)C(=O)c2ccco2)cc1` (stereo unspecified), the Potency is reported as active: 28.2 µM. `CCCCS/C(=C(/C#N)C(N)=O)c1cc2c([nH]1)CCCC2` was tested, and the Potency was inconclusive [inhibitor, partial curve]. In the case of `CCN(CC)CCNC(=O)C1CCN(S(=O)(=O)N2CCCCC2)CC1`, the activity change, negative = inhibition is reported as inactive: 4.3%. With `CCc1c(C)sc(NC(=O)c2cc(-c3ccc(OC)c(OC)c3)on2)c1C#N` the Potency was inconclusive [inhibitor, partial curve]. With `COc1cccc(C2=NO[C@@H]3C(=O)N(Cc4ccccc4)C(=O)[C@H]23)c1OC` the Potency was inconclusive [inhibitor, partial curve]. With `CCC1CCCN1Cn1cnc2c([nH]c3ccc(C)cc32)c1=O` (stereo unspecified) the Potency was inconclusive [inhibitor, partial curve]. `COc1ccc(N2CCN(c3ncnc4c3nnn4Cc3ccccc3Cl)CC2)cc1` was tested, and the Potency was inconclusive [inhibitor, partial curve]. With `Cc1cccc(NS(=O)(=O)c2ccc(C)c(C(=O)OCC(=O)Nc3cc(C)on3)c2)c1` the activity change, negative = inhibition was inactive: -16.5%.
